About 1,800 (2.5%) of roughly 71,000 compounds were called active. This list was built around the results that the source calls inconclusive (neither active nor inactive); the mix of calls is not that of the screen. Calls follow the shape of the dose curve; as a rule, active = well fitted activation curve with a large enough effect in the signal ratio, with a control signal flat (not every such curve was filed as active); inconclusive = small, poorly fitted or top-dose-only effect, or effect the other way, or a change in a side signal; inactive = flat fitted curve, though single readings scatter; the % refers to the signal ratio. Where the call is inconclusive, the potency comes from a doubtful curve fit.
Experiment: Cell signaling CRE-BLA (Fsk stim); as to activity change, negative = inhibition: % of control where 0% means no effect
Conditions: CHO CRE-bla reporter (cAMP response element driving beta-lactamase), forskolin EC10, beta-lactamase ratio; activity change, negative = inhibition: at 38.2 µM (top of the series) unless noted
Procedure, shortened: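 Cells were plated overnight at 37 °C, exposed to compound titrations plus EC10 NKH 477 for 3 h, then given CCF4 dye for 2 h at room temperature. Blue/green (460/530 nm) ratio was converted to %Activity and AC50 values calculated.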
Potency is read from the fitted curve at half-maximal effect; tags tell the direction and shape of the fitted curve.

SMILES	activity change, negative = inhibition	Potency
Cc1cc2nc(-c3ccc(SCC(=O)N4CCN(C(=O)c5ccco5)CC4)nc3)[nH]c2cc1C	inconclusive: 11.7%	
COc1ccc(-n2c(=O)c(-c3cc(F)cc(F)c3)nc3cnc(N4CCOCC4)nc32)cc1		inconclusive: 1 µM [rising, full curve]
Cc1noc(C)c1COC(=O)Cc1ccc(Cl)cc1		inconclusive: 5.01 µM [falling, single point]
CC(C)c1nnc(SCC(=O)NCc2ccco2)n1C	inconclusive: 6.23%	
Fc1cc2nc(-c3ccncc3)[nH]c2cc1F		inconclusive: 7.94 µM [rising, partial curve]
Cc1cccc(-c2nc(C#N)c(N3CCCCCC3)o2)c1		inconclusive: 10 µM [rising, single point]
CCC(C)C(=O)Nc1cc(C(=O)OC)cc(C(=O)OC)c1 (centres undefined)		inconclusive: 10 µM [rising, partial curve]
C/C=C/Cn1c(SCc2ccc(C)cc2)nc2c1c(=O)[nH]c(=O)n2C		active: 12.6 µM
COc1ccc(-c2nc(CSCC(=O)NCC3CCCO3)c(C)o2)cc1OC (centres undefined)		inactive
CCCCCCN(C(=O)CCCCCN1C(=O)NC(c2ccc(-c3ccccc3)cc2)C(C(=O)OCc2ccccc2)=C1C)C(C(=O)NCCCC)c1ccc(OCC(=O)O)c(C(=O)O)c1 (centres undefined)		inactive
O=C(COC(=O)c1ccc(Br)o1)NCc1ccco1		inactive
COc1ccc(-c2coc3ccc(O[C@@H]4O[C@@H](COC(C)=O)[C@@H](OC(C)=O)[C@@H](OC(C)=O)[C@H]4OC(C)=O)cc3c2=O)cc1	inconclusive: 16.3%	
COC(=O)COC(=O)c1ccc(Oc2nc(OC)nc(N(C)C)n2)cc1		inconclusive: 15.8 µM [rising, single point]
Cc1cc(Nc2ccc(F)cc2Cl)n2nc(C)nc2n1		inconclusive: 12.6 µM [rising, partial curve]
NC(=O)c1ccsc1NC(=O)COC(=O)C1CCCN1C(=O)c1cccs1 (centres undefined)	inconclusive: 13.2%	
CCn1c(C)c(CCC(=O)O)c(=O)n2nc(-c3ccccc3OC)cc12	inconclusive: -13.4%	
Cn1cccc1Cc1nnc(SCC(=O)N2CCOCC2)n1CCc1ccccc1		inactive
Fc1ccccc1N1CCN(C(c2cccs2)c2nnnn2CCc2ccccc2)CC1 (centres undefined)	inconclusive: -2.41%	
COc1cccc2cc(C(=O)N3CCN(C45CC6CC(CC(C6)C4)C5)CC3)c(=O)oc12		inactive
COc1ccccc1CCn1c(=O)c(-c2cccc(Cl)c2)nc2cncnc21	inconclusive: 25.6%	
Cc1ccc2c(c1)c(-c1ccccc1)nc1nncn12		inconclusive: 10 µM [rising, partial curve]
Cc1cc(C)c2cc(CN(Cc3cccs3)Cc3nnnn3CC3CCCO3)c(=O)[nH]c2c1 (centres undefined)		inconclusive: 12.6 µM [rising, single point]
CCOC(=O)c1cc(-c2ccc(N)cc2)sc1N		inconclusive: 20 µM [rising, single point]
CCCn1c(Sc2nnnn2-c2ccccc2)n[nH]c1=O	inconclusive: -16.2%	
C1=C(c2ccc(-c3ccccc3)cc2)Nc2ncnn2C1c1ccco1 (centres undefined)		inconclusive: 25.1 µM [falling, single point]
O=C(NCc1ccco1)c1cc2sccc2n1Cc1ccc(F)cc1	inconclusive: -28.5%	
CC1CCN(S(=O)(=O)c2ccc(Cl)cc2)CC1		inactive

SMILES	activity change, negative = inhibition	Potency
COc1ccc(CCNC(=O)c2nnn(-c3ccc4c(c3)OCCO4)c2N)cc1OC	inconclusive: 12.2%	
COc1ccc(-c2nc(C#N)c(NCc3ccccc3Cl)o2)cc1		inactive
CC(C)N(Cc1nnc(-c2ccccc2Cl)o1)C(=O)c1cccc(C#N)c1		inconclusive: 7.94 µM [rising, partial curve]
c1ccc(Cn2nnc3c(N4CCCCCC4)ncnc32)cc1		active: 3.16 µM
O=C(OCc1nc2ccccc2s1)c1cccc(S(=O)(=O)N2CCOCC2)c1	inconclusive: 8.82%	
CC1=C(C)CS(=O)N(c2ccc(S(N)(=O)=O)cc2)C1 (centres undefined)		inconclusive: 3.16 µM [falling, partial curve]
COCCCNC(=O)c1c(N)n(-c2cccc(S(N)(=O)=O)c2)c2nc3ccccc3nc12		active: 12.6 µM
CCn1c2ccccc2c2nnc(SCc3ccccc3)nc21		active: 3.16 µM
CC(=O)c1sc(-c2c(C)nc3sccn23)nc1C1CCCC1		inconclusive: 0.398 µM [rising, full curve]
CCOC(=O)c1ccccc1NC(=O)CN1C(=O)CCS(=O)(=O)c2ccccc21	inconclusive: -5.31%	
CCOC(=O)CCC(=O)OCC(=O)NC(C)C1CC2CCC1C2 (centres undefined)		inconclusive: 3.98 µM [falling, single point]
O=C(NC1=NCCS1)NC12CC3CC(CC(C3)C1)C2	inconclusive: 16%	
O=C(CSc1nnc(-c2cccs2)n1Cc1ccco1)Nc1ccc2c(c1)OCO2	inconclusive: -3.86%	
COc1ccc(-c2nc3cnc(Nc4cccc(OC)c4)nc3n(C)c2=O)cc1		inconclusive: 3.98 µM [rising, partial curve]
O=C(NC(Cc1ccccc1)C(=O)NCc1ccccn1)c1ccco1 (centres undefined)		inactive
COc1ccccc1N1CCN(C(=O)c2cc(-c3ccc(Br)cc3)on2)CC1	inconclusive: 5.54%	
COc1ccc(C2=NCC(CSc3nnc(-c4ccc5c(c4)OCO5)o3)S2)cc1 (centres undefined)		inconclusive: 3.16 µM [falling, single point]
CCOc1ncccc1C(=O)OCC(=O)NCCc1ccc(OC)cc1	inconclusive: 42%	
C=CCn1c2ccccc2c2nnc(SC(CC)C(=O)Nc3nc(C)c(C(=O)OCC)s3)nc21 (centres undefined)		active: 1.26 µM
COC(=O)Cn1c(=NC(=O)CSCC(=O)NC2CCCCC2)sc2cc(OC)ccc21	inconclusive: 15.7%	
CCOC(=O)C(C)(C)Sc1nc2c(cnn2-c2ccc(C)cc2)c(=O)[nH]1		inconclusive: 12.6 µM [rising, partial curve, poor fit]
C=CCc1c(C)nc(SC)nc1Nc1ccc(C(=O)O)cc1		inconclusive: 10 µM [rising, partial curve]
CCCCNc1nc(C)nc2c1nc(C)n2CCC		active: 10 µM
CC(C)Sc1nc(-c2cccs2)nc2c1c(=O)n(C)c(=O)n2C		active: 3.16 µM
CCc1ccccc1NC(=O)c1nnn(CC(=O)Nc2cccc(C)c2)c1N	inconclusive: 2.53%	
Cc1cc(O)c2c(-c3ccccc3)cc(=O)oc2c1	inconclusive: 26.8%	
O=C(Nc1cccc(O)c1)c1ccc(Br)cc1		inconclusive: 25.1 µM [rising, single point]

SMILES	activity change, negative = inhibition	Potency
Oc1cc2c(cc1O)[C@H]1c3ccc(O)c(O)c3OC[C@@]1(O)C2	inconclusive: -23%	
COC(=O)c1[nH]c2ccc(C)cc2c1NC(=O)CN1CCN(c2ccccc2)CC1		inconclusive: 0.2 µM [falling, full curve, poor fit]
CCC1=Nc2ccccc2-c2nnc(SC)nc2O1		inactive
Cc1nc2cc(Cl)c(Cl)cc2nc1C	inconclusive: 1.2%	
CC(Sc1nc(N2CCOCC2)c2c(c1C#N)CC(C)(C)OC2)C(=O)Nc1ccccc1 (centres undefined)		inconclusive: 12.6 µM [rising, partial curve]
Cc1cc(C)nc(SCc2ccccc2C#N)n1	inconclusive: 23.7%	
CCC1CCCCN1C(=O)CSc1nc(N)c(NC(=O)c2ccc(OC)c(OC)c2)c(=O)[nH]1 (centres undefined)	inconclusive: 6.78% [fluorescent]	
Cc1ccc2[nH]c3c(c2c1)CN(C(=O)CN1CCN(c2ccccc2F)CC1)CC3		inconclusive: 10 µM [falling, partial curve]
CCc1ccc(N2CC(C(=O)NC3=NCCS3)CC2=O)cc1 (centres undefined)	inconclusive: -2.14%	
O=C(c1ccccc1)c1cccn1CC(=O)N1CCN(c2ccc(F)cc2)CC1	inconclusive: -5.54%	
NCCCCCc1nnc(SCC(=O)Nc2cccc(Cl)c2)o1	inconclusive: -6.33%	
Cn1c(=O)c(-c2ccccc2)nn2c3ccccc3nc12		inactive
Cc1cc(C)n(-c2nc3ccccc3nc2N2CCCCCC2)n1		inconclusive: 25.1 µM [rising, single point]
N#Cc1ccccc1OCC(=O)Nc1c(C(=O)C2CC2)oc2ccccc12		inconclusive: 5.01 µM [rising, partial curve]
CN(Cc1ccco1)C(=O)Cn1c(=O)oc2cc(S(=O)(=O)NCc3ccccc3)ccc21		inactive
O=C(Nc1nnc(Cc2ccccc2)s1)c1cccs1	inconclusive: 23.9%	
C=CCN1C(=O)C(O)=C(C(C)=O)C1c1ccccc1F (centres undefined)	inconclusive: 5.54% [at 7.6 µM]	
O=c1ccc(-c2ccccc2)n[nH]1	inconclusive: 11.1% [at 7.6 µM]	
COc1ccc(-c2nnc(SCC(=O)N3CCc4ccccc4C3)o2)cc1	inconclusive: -20.2%	
COc1ccc(NC(=O)C2CCCCN2S(=O)(=O)c2ccc(F)cc2)c(OC)c1 (centres undefined)		inconclusive: 10 µM [rising, partial curve]
Cc1ccc(C)c2[nH]c(=O)c(CN(Cc3ccco3)C(=O)Nc3ccccc3)cc12	inconclusive: -27.7%	
CCn1c(C)cc(=S)c2ccccc21		inactive
CCNc1cc2n(c(=O)n1)CCc1cc(OC)c(OC)cc1-2		active: 10 µM
COCCn1c(=O)c(-c2cc(F)cc(F)c2)nc2cncnc21		inconclusive: 12.6 µM [rising, single point]
CCc1nnc(NC(=O)CSc2nnc(CNc3ccc(F)cc3)n2C2CCCCC2)s1	inconclusive: -25.5%	
